# Test results: PubChem BioAssay AID1645887 (National Center for Advancing Translational Sciences (NCATS), 2021)
# Hit rate of the full screen: of about 16,000 compounds, about 40 (0.2%) were called active. Not shown: some 1% with an inconclusive outcome. The call rests on the fitted dose curve; in most records, active means well fitted activation curve with a large enough effect; inconclusive means small, poorly fitted or top-dose-only effect, or another doubt; inactive means no such curve, though single readings can be large or run the other way. A number of entries come with more than one value. They are shown here; other results are not. The source may hold further records. The records of an entry are repeats in other runs, samples, wells, individuals or studies.
# Biological target: Rap guanine nucleotide exchange factor 4 (Homo sapiens) (UniProt Q8WZA2)
# Sequence of UniProt Q8WZA2 (Q8WZA2 whole entry, looked up): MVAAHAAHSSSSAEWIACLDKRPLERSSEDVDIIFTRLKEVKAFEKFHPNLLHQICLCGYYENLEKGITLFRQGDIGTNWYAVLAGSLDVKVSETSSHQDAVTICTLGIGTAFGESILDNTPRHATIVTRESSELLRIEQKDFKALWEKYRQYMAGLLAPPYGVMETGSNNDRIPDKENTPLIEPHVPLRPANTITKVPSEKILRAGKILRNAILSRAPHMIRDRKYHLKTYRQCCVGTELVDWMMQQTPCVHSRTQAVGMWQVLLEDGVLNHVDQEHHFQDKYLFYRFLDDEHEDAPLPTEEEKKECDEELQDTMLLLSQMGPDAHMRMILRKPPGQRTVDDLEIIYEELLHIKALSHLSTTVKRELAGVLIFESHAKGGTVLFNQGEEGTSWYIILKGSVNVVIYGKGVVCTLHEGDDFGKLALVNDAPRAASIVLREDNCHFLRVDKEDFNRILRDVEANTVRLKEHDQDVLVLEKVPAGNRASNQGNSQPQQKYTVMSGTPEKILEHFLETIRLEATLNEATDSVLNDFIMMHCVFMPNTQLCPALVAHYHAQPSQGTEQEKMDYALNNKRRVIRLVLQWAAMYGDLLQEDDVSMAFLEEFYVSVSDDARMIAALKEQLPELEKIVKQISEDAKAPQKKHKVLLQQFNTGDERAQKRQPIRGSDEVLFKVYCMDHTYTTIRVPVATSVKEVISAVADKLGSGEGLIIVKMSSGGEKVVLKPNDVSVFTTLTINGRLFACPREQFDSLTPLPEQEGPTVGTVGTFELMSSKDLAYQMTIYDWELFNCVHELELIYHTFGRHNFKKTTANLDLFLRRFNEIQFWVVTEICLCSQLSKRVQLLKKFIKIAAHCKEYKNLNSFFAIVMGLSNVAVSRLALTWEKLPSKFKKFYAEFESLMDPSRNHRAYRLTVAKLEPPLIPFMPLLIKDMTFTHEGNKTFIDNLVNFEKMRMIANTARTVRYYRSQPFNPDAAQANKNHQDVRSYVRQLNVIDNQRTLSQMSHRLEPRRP
# Experiment: Validation qHTS for agonist of cAMP-regulated guanine nucleotide exchange factor 4 (EPAC2);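 further: exchange makes BODIPY-GDP fluorescence drop when released from Rap1B; series mostly up to about 150 µM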
# Conditions: EPAC2 Rap1B BODIPY-GDP exchange, fluorescence; stronger effect = higher value
# Excerpt: Principle Investigator: Xiaodong Cheng Ph.D.
# The University of Texas Medical Branch, […], TX
# In multi-cellular eukaryotic organisms, the effects of cAMP are transduced by two ubiquitously-expressed intracellular cAMP receptors, the classic protein kinase A/cAMP-dependent protein kinase (PKA/cAPK) and the more recently discovered exchange protein directly activated by cAMP/cAMP-regulated guanine nucleotide exchange factor (EPAC/cAMP-GEF). Both PKA and EPAC are ubiquitously expressed in all tissues, and an increase in intracellular cAMP levels will lead to the activation of both PKA and EPAC. […]
# This qHTS will be used to screen the Molecular Libraries Small Molecule Repository (MLSMR) as a concentration-titration series using the NCGC unique quantitative screening (qHTS) platform to find activators for EPAC1. […] Activators are identified by monitoring the change in fluorescence signal as the exchanged free BODIPY-GDP has a reduced fluorescence compared to Rap1-bound BODIPY-GDP. […]
# Briefly, three uL of reagents (100 nM EPAC2, 250 nM RAP1B-BODIPY-GDP, 50 uM GDP) were dispensed into a 1536-well Greiner black solid-bottom medium binding assay plate. […] The assay plates were read at 5 minute intervals for 30 minutes in the ViewLux plate reader using 480nm excitation and 540nm emission filters. […]
# On the % scale 0 is the no-effect control and ±100 the full control effect.
row,Structure (SMILES),activation
1,N=c1nc(N2CCCCC2)cc(N)n1O,"inactive: -21.1, 13.6, -2.57, -13.2, -6.43% [separate samples]"
2,Cc1[nH]c(=O)c(C#N)cc1-c1ccncc1,"inactive: -35.1, -0.111, -8.04, -15.8% [separate samples]"
